T1: recombinant mature myostatin (human, produced in E. coli) (human) (UniProt O14793)
T1 sequence (looked up): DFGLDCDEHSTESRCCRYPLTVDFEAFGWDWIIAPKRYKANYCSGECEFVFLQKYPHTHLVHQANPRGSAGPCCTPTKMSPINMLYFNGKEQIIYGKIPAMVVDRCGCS

T2: recombinant mature myostatin (human, produced in E. coli) (human, UniProt O14793 267-375)
T2 sequence (looked up): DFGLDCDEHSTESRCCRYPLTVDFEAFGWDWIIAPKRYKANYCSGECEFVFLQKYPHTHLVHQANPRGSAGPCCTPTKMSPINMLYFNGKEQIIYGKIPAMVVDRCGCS


Assays:
[1] = target: T1, recombinant mature myostatin (human, produced in E. coli) (human); assay: cell-based or functional assay
[2] = target: T2, recombinant mature myostatin (human, …); assay: cell-based or functional assay
[3] = target: T2, recombinant mature myostatin (human, …); assay: KinExA solution based assay or BIAcore assay (not said which)
[4] = target: T2, recombinant mature myostatin (human, …); assay: BIAcore, myostatin immobilized on CM5 chip

IC50 (nM), C2C12 pMARE-luc myostatin activity assay [1] [nM] | Binder | further results
2380 | mTN8Con6-5 peptibody (Fc fusion) [left out - human IgG1 Fc]GGGGGAQESRWYPCYEGHLWCFDLTETLE | 
11 | Myostatin-Linear-20 peptibody (Fc fusion) MYREMSMLEGLLDVLERLQHYGGGGG[left out - human IgG1 Fc] | 
30 | Myostatin-TN12-34 peptibody (Fc fusion) MAHWCEQGPWRYGNICMAYGGGGG[left out - human IgG1 Fc]GGGGGAHWCEQGPWRYGNICMAY | 
1.81 | mTN8-19-33(-LE) peptibody (Fc fusion) [left out - human IgG1 Fc]GGGGGAQPESQGHCTRWPWMCPPQGWG | 
17.3 | mTN8-19-6 peptibody (Fc fusion) [left out - human IgG1 Fc]GGGGGAQGVNQGQCTRWRWMCPPNGWELE | 
106 | mL2-9 peptibody (Fc fusion) MAQQMELLDSLFELLKEIVPKSQPALEGGGGG[left out - human IgG1 Fc] | 
158 | mL20-3 peptibody (Fc fusion) [left out - human IgG1 Fc]GGGGGAQTSRDMSLLWELLEELDRLGHQRLE | 
16.7 | mTN8-19-4 peptibody (Fc fusion) [left out - human IgG1 Fc]GGGGGAQMITQGQCTRWPWMCPPQPSGLE | 
4.39 | mTN8-19-28 peptibody (Fc fusion) [left out - human IgG1 Fc]GGGGGAQSGPQGHCTRWPWMCAPQGWFLE | 
6.36 | mTN8-19-29 peptibody (Fc fusion) [left out - human IgG1 Fc]GGGGGAQTLVQGHCTRWPWMCPPQRWVLE | 

Continued, binder first:

Binder | IC50 (nM), C2C12 pMARE-luc myostatin activity assay [1] [nM] | further results
mL20-2 peptibody (Fc fusion) [left out - human IgG1 Fc]GGGGGAQTQRDMSMLDGLLEVLDQLRQQRLE | 123 | 
mTN8-19-11 peptibody (Fc fusion) [left out - human IgG1 Fc]GGGGGAQIYPHDQCTRWPWMCPPQPYPLE | 28.7 | 
mL15-9 peptibody (Fc fusion) [left out - human IgG1 Fc]GGGGGAQQIEMLESLLDLLRDMVPMSNAFLE | 354 | 
Myostatin-2xTN8-19 kc peptibody (Fc fusion, also called 2xmTN8-19 (parent)) [left out - human IgG1 Fc]GSGSATGGSGSTASSGSGSATGQGHCTRWPWMCPPYGSGSATGGSGSTASSGSGSATGQGHCTRWPWMCPPY |  | IC50 (nM), C2C12 pMARE-luc myostatin activity assay [2]: ~9 nM; Kd [3]: > 1 nM; Kd [4]: ~2 nM
mL15-7 peptibody (Fc fusion) [left out - human IgG1 Fc]GGGGGAQQVDSLQQVLLWLEHKLALGPQVLE | 32.8 | 
mTN8-19-21(-LE) peptibody (Fc fusion) [left out - human IgG1 Fc]GGGGGAQSEYQGLCTRWPWMCPPQGWK | 2.49 | 
mL2-7 peptibody (Fc fusion) MAQRMEMLESLFELLKEIVPMSKAGLEGGGGG[left out - human IgG1 Fc] | 90.2 | 
mTN8-19-23 peptibody (Fc fusion) [left out - human IgG1 Fc]GGGGGAQPGAHDHCTRWPWMCPPQSRYLE | 6.58 | 
mTN8Con6-3 peptibody (Fc fusion) [left out - human IgG1 Fc]GGGGGAQWTGWYQCYGGHLWCYDLRRKLE | 86.8 | 
mTN8-19-16 peptibody (Fc fusion) [left out - human IgG1 Fc]GGGGGAQYQTQGLCTRWPWMCPPQSQRLE | 4.65 | 
mTN8-19-13 peptibody (Fc fusion) [left out - human IgG1 Fc]GGGGGAQMWQQGHCTRWPWMCPPQGWGLE | 20 | 
mTN8-19-12 peptibody (Fc fusion) [left out - human IgG1 Fc]GGGGGAQSYWQGQCTRWPWMCPPQWRGLE | 980 | 
mL20-4 peptibody (Fc fusion) [left out - human IgG1 Fc]GGGGGAQMQHDMSMLYGLVELLESLGHQILE | 160 | 

Reference: patent publication US20140294866A1 (Amgen, published 2014)
